# Data as given in PubChem BioAssay AID504706 (National Center for Advancing Translational Sciences (NCATS), 2011).
# In all, about 320,000 compounds went through this assay and about 200 (0.062%) were called active. Inconclusive results, whose numbers are uncertain, are shown with a selection of clear calls. The call rests on the fitted dose curve; in most records, active means well fitted activation curve with a large enough effect; inconclusive means small, poorly fitted or top-dose-only effect; inactive means no such curve, though single readings can be large or run the other way. No potency is given beside an inconclusive call; the fits are too rough.
# Test: qHTS assay for re-activators of p53 using a Luc reporter; further: nearly all actives have a fitted effect of over 45% in size; on activity change, positive = activation: % of control where 0% means no effect
# Conditions: H1299 p53-A138V BP100-luciferase reporter, luminescence, 24 h; series mostly up to 92.2 µM; activity change, positive = activation: at the top concentration
# In short: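 p53-null H1299 cells stably carrying temperature-sensitive p53-A138V and a BP100-luciferase reporter were pinned with compounds (4-point, 1:5 series) and held 24 hrs at 37 deg C. Luminescence was read 10 min after detection reagent.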
# Potency means the concentration at half of the fitted maximal effect; tags describe the fitted curve by direction and shape.
Structure (SMILES),"activity change, positive = activation",Potency
Cc1cccc(NC(=O)c2cc(-c3ccc(C)s3)nc3ccccc23)n1,inactive: -5.21%,
c1ccc(Nc2nnc(-c3cccnc3)s2)cc1,,"inconclusive [activator, full curve, poor fit]"
O=C(CSCc1cccc(F)c1)N1CCN(c2ccccc2)CC1,,"inconclusive [activator, partial curve, poor fit]"
CC(C)(C)OC(=O)C[C@H]1C/C=C\C[C@@H](CC(=O)N(CCO)Cc2ccccc2)C(=O)N[C@H](C(C)(C)C)COC1=O,inactive: 3.15%,
CCCNc1nc2c(c(=O)n(C)c(=O)n2C)n1Cc1ccc(F)cc1,inactive: -9.53%,
O=C(Cn1cnc2sc3c(c2c1=O)CCCC3)NCC(=O)Nc1ccccc1F,,"inconclusive [activator, single point]"
CCC(CC)NC(=O)/C=C/c1ccccc1Cl,,"inconclusive [activator, full curve, poor fit]"
CCCCN(CCCNC(=O)c1ccc2nc(N3CCOCC3)sc2c1)Cc1ccccc1,,"inconclusive [activator, single point]"
CCCCc1ccc(NC(=S)N2CCCC(C)C2)cc1 (stereo unspecified),inactive: -7.85%,
O=C(OCC(=O)N1CCCCC1)c1c[nH]c2ccccc12,,"inconclusive [activator, partial curve, poor fit]"
Cc1cccc(OCc2nc3c4c(ncn3n2)-c2ccccc2CC42CCCC2)c1,,"inconclusive [activator, single point]"
O=C(Nc1nnc(CCc2ccccc2)s1)c1cccc(F)c1,,"inconclusive [activator, single point]"
COc1cccc(Cn2cccc(NC(=O)NC3CCCCC3)c2=O)c1,inactive: -10.3%,
COc1cc2c(cc1OC)CN(C(=O)CCc1c[nH]c3ccccc13)[C@H](C(=O)O)C2,inactive: -0.0598%,
CC1CCCN(C(=O)CSc2nnc3ccccn23)C1 (stereo unspecified),,"inconclusive [activator, partial curve, poor fit]"
Cc1c(C(=O)Nc2ccc3c(c2)CCC3)cccc1[N+](=O)[O-],,"inconclusive [activator, partial curve, poor fit]"
COC(=O)CSc1nc(-c2cccs2)ccc1C#N,,"inconclusive [activator, partial curve, poor fit]"
CCOC(=O)COc1ccc2c(c1)C(=O)CC(C)(c1cccnc1)O2 (stereo unspecified),inactive: -3.4%,
O=C(Nc1ccc([N+](=O)[O-])cc1)c1cc2ccccc2nc1Cl,inactive: 1.01%,
Cc1ccccc1C(=O)N=c1c(C#N)cc2c(=O)n3cccc(C)c3nc2n1Cc1ccco1,inactive: 0.738%,
CC(=O)Nc1ccc(-c2nc3ccc(NC(C)=O)cc3o2)cc1,,"inconclusive [activator, full curve, poor fit]"
CC(C)Oc1cccc(-c2cc(C(=O)N3CCN(c4ncccn4)CC3)c3ccccc3n2)c1,inactive: 21.1%,
CCOC(=O)c1sc(NC(=O)Nc2ccc(F)cc2)nc1C,,"inconclusive [activator, partial curve, poor fit]"

Structure (SMILES),"activity change, positive = activation",Potency
Cc1cccc(NC(=O)c2nc[nH]c2C(=O)NCCN(CCNC(=O)c2[nH]cnc2C(=O)Nc2cccc(C)c2)CCNC(=O)c2[nH]cnc2C(=O)Nc2cccc(C)c2)c1,inactive: 2.53%,
COc1ccc(S(=O)(=O)n2cnc3ccccc32)cc1,,"inconclusive [activator, full curve, poor fit]"
COc1ccc(CCNC(=O)c2ccc(CNc3nc(=S)[nH]c4ccccc34)cc2)cc1OC,inactive: -2.71%,
COc1cc(CNc2ccc(N3CCCC3)cc2)ccc1OCc1ccccc1,,"inconclusive [activator, partial curve, poor fit]"
Cn1c(-c2ccc(Br)o2)nc2cc(Br)ccc21,,"inconclusive [activator, partial curve, poor fit]"
CC(C)CC(=O)Nc1cc2nn(-c3ccccc3)nc2cc1Cl,,"inconclusive [activator, partial curve]"
CC1CCN(c2ccc3c(c2)S(=O)(=O)c2cccc(C(=O)NC4CCCCC4)c2C3=O)CC1,,"inconclusive [activator, full curve]"
CC(=O)OCCCN1c2ccccc2Nc2nnc(-c3ccccc3)cc21,inactive: 22.1%,
CCC1CCCCN1C(=S)NC(=O)c1ccc(F)c(S(=O)(=O)N2CCOCC2)c1 (stereo unspecified),inactive: -1.56%,
Cc1cc(N2CCN(C)CC2)nc2ccc(NC(=O)CCC(=O)NCc3ccco3)cc12,inactive: -2.53%,
COc1cccc(NC(C)=[N+](C)CCNS(=O)(=O)c2ccc(Cl)cc2)c1,,"inconclusive [activator, full curve, poor fit]"
CCOC(=O)C(C)Oc1cccc2c(=O)n(CC(=O)NCc3ccc(F)cc3)ccc12 (stereo unspecified),inactive: 5.49%,
CCC(C)Sc1nnc(CNC(=O)C23CC4CC(CC(C4)C2)C3)n1C1CCCCC1 (stereo unspecified),inactive: -9.32%,
Cc1ccc(-c2onc3ccc(C(=O)O)cc23)cc1,inactive: -2.96%,
CC(C)NC(=S)NC(=O)c1ccc(Cl)cc1Cl,,"inconclusive [activator, full curve, poor fit]"
CN1CCc2nc(SCCOc3ccccc3)c(C#N)cc2C1,,"inconclusive [activator, single point]"
COc1cc([C@H]2[C@@H]3CCCC[C@]3(O)CCN2CC(=O)Nc2ccc(C)cc2C)ccc1O,,"inconclusive [activator, single point]"
NS(=O)(=O)c1ccc(N2N=C(c3ccccc3)CC2c2cccc(F)c2)cc1 (stereo unspecified),inactive: 0.77%,
O=C(CNc1ccccc1)Nc1ccc(F)cc1,,"inconclusive [activator, partial curve, poor fit]"
CC1(C)Cc2c(C#N)c(N3CCOCC3)nc(-c3ccccc3)c2CO1,inactive: -1.52%,
CC1(C)Cc2cccc(OCC(=O)N3CCN(c4cccc(Cl)c4)CC3)c2O1,inactive: -5.92%,
O=C(Nn1c(COc2ccccc2)nc2ccccc2c1=O)C(Cl)(Cl)Cl,,"inconclusive [activator, partial curve, poor fit]"
Cc1oc(-c2ccc(Cl)cc2)nc1CN1CCCC(C(=O)N2CCOCC2)C1 (stereo unspecified),inactive: -3.76%,
